What is called % Inhibition is the relative decrease from the control value, in per cent.

Screen size: about 150,000 compounds; about 540 (0.36%) showed an effect of 50% or more. Some of the results follow.

In this experiment the test system is Plasmodium falciparum. The experiment can be described thus: Primary screen in NF54 nanoGlo assay, in single point, at 2uM, 72h; a lower Z score goes with more inhibition. As to conditions: timepoint 72 hour. The class given is functional, Erythrocyte.
Consider `COC(=O)CN1CCN(C(=O)c2ccc3ncsc3c2)CC1=O`, for which the “% Inhibition” value was -4% and the Z score was determined as 0.69.
On the same counts, the results for `CCCN1CCN(CCCNC(=O)C2CCN(Cc3cn(C)c4ccc(OC)cc34)CC2)CC1` are 8% and -1.38.
Turning to `CCn1c(-c2cc(C)cs2)nnc1N1CC[C@H](N2CCN(C(C)C)CC2)C1`, the “% Inhibition” value is on record as -13% and the Z score is 1.54.
Turning to `CCc1ccc([C@@H](C)C(=O)Nc2nccc(=O)n2C)cc1`, the “% Inhibition” value is -6% and the Z score is 0.63.
On the same counts, the results for `CN(C)c1ccccc1C(=O)N1CCC(c2nnc(CO)n2C)CC1` are 2% and -0.29.
On the same counts, the results for `CCC(=O)N(CC)CC(=O)Nc1nc(-c2ccccc2)cn1-c1ccccc1` are -11% and 1.39.
On the same counts, the results for `CCOC(=O)NCCC(=O)N[C@@H](C)c1cccs1` are 2% and -0.27.
For the compound `O=C(Nc1cc(S(=O)(=O)N2CCCC2)ccn1)C1CC2CCC1C2` (centres undefined), the “% Inhibition” value is -26% and the Z score worked out at 2.9.
On the same counts, the results for `Cc1nc(C)c(F)c(NC2CCC3(CC2)NC(=O)NC3=O)n1` (centres undefined) are 14% and -1.59.
Consider `Cc1csc(NC(=O)[C@@H]2CCCO2)n1`, for which the “% Inhibition” value is on record as -1% and the Z score is given as 0.28.
On the same counts, the results for `COC1CCCCCC1NC(=O)N(CC(C)(C)O)C(C)C` (centres undefined) are -4% and 0.73.
For `CC[C@H](NCC(=O)N(C)C)c1ccccc1Br` the same measures were -6% and 0.86.
On to `CC(Oc1ccccc1)C(=O)N1CCN(CC(OCc2ccc(C#N)cc2)c2cccc(N3CCCC3)c2)CC1` (centres undefined), for which the “% Inhibition” value is recorded as -12% and the Z score was determined as 1.69.
`CCN(CC)CC1CCN(C(C)c2nc(C(C)(C)C)no2)C1` (centres undefined): the “% Inhibition” value was -4% and the Z score came out at 0.44.
For `Cc1ccc(-c2ccc(S(=O)(=O)N3CCC(N)CC3)cc2)cc1C(F)(F)F` the same measures were 21% and -3.31.
On the same counts, the results for `O=S(=O)(NCc1ccc2c(c1)OCO2)c1ccc(-c2cnc(C3CCC3)o2)s1` are -12% and 1.32.
In the case of `OC1CC(C2CCCCC2)N(Cc2ccncc2)C1` (centres undefined), the “% Inhibition” value is on record as -6% and the Z score came to 0.86.
On the same counts, the results for `CCc1nccn1CCC(=O)NCCc1nc2ccccc2o1` are -5% and 0.62.
For `COCCOc1ccccc1N1CCN(C(=O)[C@@H]2COCCO2)CC1` the same measures were -8% and 1.15.
On the same counts, the results for `COCCN1C[C@]2(CCCN(C(=O)c3ccc4nccnc4c3)C2)CCC1=O` are 1% and -0.08.
Consider `CC(C)[C@H](CO)CNS(=O)(=O)c1cn[nH]c1`, for which the “% Inhibition” value is on record as -14% and the Z score amounted to 1.32.
As to `O=C(NCCC1CCCCO1)C(O)c1ccc(Br)cc1` (centres undefined), the “% Inhibition” value is -2% and the Z score was found to be 0.17.
For `COCc1nc(COc2ccccc2OC)n(C2CCCCC2)n1` the same measures were -8% and 0.95.
Consider `COC(=O)N[C@H]1CCC2C3CC[C@H]4C[C@H](O)CC[C@]4(C)C3CC[C@@]21C` (some centres undefined), for which the “% Inhibition” value is -24% and the Z score was 3.08.
On the same counts, the results for `Cc1ccc2cc(C(=O)N(C)Cc3nccn3C)ccc2n1` are -4% and 0.38.
`CCC(=O)Nc1ccc(-c2nc3c(ccc4ccccc43)o2)cc1`: the “% Inhibition” value is -8% and the Z score was 1.55.
On the same counts, the results for `CN=C(NCCCOCCOC)NCCOc1cccc(C)c1` are -4% and 0.58.
For `C[C@@]1(CO)CN(Cc2ccccc2)C[C@@H]2CN(C(=O)NC3CCCCC3)CCN21` the same measures were -7% and 1.03.
For `CCc1ccc(-c2nn(CC)c(=O)c3c2CCCC3)cc1S(=O)(=O)N1CCCCCC1` the same measures were -8% and 1.21.
For the compound `CCn1ccc(C(=O)N2C[C@H]3CNC(=O)[C@]34CCCC[C@@H]24)n1`, the “% Inhibition” value is on record as -9% and the Z score was determined as 1.42.
For `Cc1c(Br)cccc1CCNC(=O)c1ncoc1C1CC1` the same measures were -7% and 0.91.
For `CCCCOc1ncccc1CNC(=O)c1ocnc1C(F)(F)F` the same measures were -17% and 1.8.
On the same counts, the results for `C[C@@]1(C(=O)NC2CCCCCCC2)CN(S(C)(=O)=O)CC(=O)N1Cc1cccc(F)c1` are -17% and 2.17.
In the case of `CCCCN1CCN(C(=O)c2nc3cccnc3n(CC)c2=O)CC1`, the “% Inhibition” value is reported as -5% and the Z score was 0.61.
On the same counts, the results for `O=C1CC[C@@H](CN(Cc2ccccc2)C(=O)C2CC(CCc3ccccc3)=NO2)N1` (some centres undefined) are -9% and 1.74.
On the same counts, the results for `COc1cc(NC(=O)Cn2c(C)nc3onc(C)c3c2=O)cc(OC)c1` are 4% and -0.51.
For `CCC(=O)N(Cc1ccc(F)cc1)c1ccc(CC(=O)NCc2ccc(F)cc2)cc1` the same measures were -13% and 1.63.
For `CCOC(=O)N1CCC(NC(=O)c2cc(C)c(CC)n(C)c2=O)CC1`, the “% Inhibition” value is -14% and the Z score was determined as 2.42.
Regarding `COC1CC(N(C)S(=O)(=O)c2ccc(C#N)nc2)C12CCC2` (centres undefined), the “% Inhibition” value was determined as 3% and the Z score was -0.33.
On the same counts, the results for `CC(C)Cc1nc(Cc2nc3ccccc3[nH]2)n(-c2ccccn2)n1` are -5% and 0.69.
Turning to `CC1CN(Cc2cccc(C#N)c2)C1C` (centres undefined), the “% Inhibition” value is on record as -10% and the Z score turned out to be 0.99.
For `C[C@H]1CCN(C(=O)c2cccc3c2CCCN3)[C@@H](C)C1` the same measures were 12% and -1.41.

For the origin of these results see ChEMBL document CHEMBL4888484, “Replenishing the malaria drug discovery pipeline: Screening and hit evaluation of the MMV Hit Generation Library 1 (HGL1) against asexual blood stage Plasmodium falciparum ,using a nano luciferase reporter read-out” (2022).
